US20160194407A1 (AstraZeneca / MedImmune, published 2016)

Key:
[1] = molecular target: T1, murine CD73 on cells (murine, UniProt Q61503 29-551); test: cell-based or functional assay
T1 sequence (looked up): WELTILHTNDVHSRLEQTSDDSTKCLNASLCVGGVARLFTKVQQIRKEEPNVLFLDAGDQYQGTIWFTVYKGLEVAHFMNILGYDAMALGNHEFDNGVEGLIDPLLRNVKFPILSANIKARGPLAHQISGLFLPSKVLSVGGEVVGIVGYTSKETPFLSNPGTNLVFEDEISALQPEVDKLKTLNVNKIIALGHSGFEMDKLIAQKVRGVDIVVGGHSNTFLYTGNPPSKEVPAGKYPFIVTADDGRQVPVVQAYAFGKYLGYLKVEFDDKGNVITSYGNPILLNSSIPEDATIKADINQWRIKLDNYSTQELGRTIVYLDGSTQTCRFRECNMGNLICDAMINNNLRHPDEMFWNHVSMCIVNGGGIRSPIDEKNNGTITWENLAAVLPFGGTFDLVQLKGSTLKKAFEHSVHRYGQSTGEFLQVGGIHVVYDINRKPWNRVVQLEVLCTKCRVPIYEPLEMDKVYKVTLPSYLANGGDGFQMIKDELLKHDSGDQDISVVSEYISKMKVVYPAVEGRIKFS

[2] = molecular target: T2, human CD73 on cells (human, UniProt P21589 27-549); test: cell-based or functional assay
T2 sequence: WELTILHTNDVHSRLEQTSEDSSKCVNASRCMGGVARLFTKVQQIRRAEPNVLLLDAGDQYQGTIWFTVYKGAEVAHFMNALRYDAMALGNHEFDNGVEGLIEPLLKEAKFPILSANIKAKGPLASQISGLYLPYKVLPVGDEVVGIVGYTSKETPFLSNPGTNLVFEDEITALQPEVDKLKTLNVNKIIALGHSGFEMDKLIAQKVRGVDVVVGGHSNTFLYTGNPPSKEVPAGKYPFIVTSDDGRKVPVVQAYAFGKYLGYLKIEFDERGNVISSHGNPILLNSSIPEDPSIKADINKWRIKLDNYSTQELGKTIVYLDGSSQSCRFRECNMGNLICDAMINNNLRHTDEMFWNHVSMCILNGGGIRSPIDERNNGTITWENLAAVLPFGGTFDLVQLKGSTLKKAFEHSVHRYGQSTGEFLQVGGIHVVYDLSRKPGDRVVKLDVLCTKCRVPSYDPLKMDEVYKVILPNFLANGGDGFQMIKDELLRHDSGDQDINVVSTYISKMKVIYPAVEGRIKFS

B1: P32E (antibody, IgG1, V domains shown)
VH: [not shown - about 100 residues]LGYSTIDYWGRGTLVTVSS
VL: QSVLTQPPSASGTPGQRVTISCSGSLSNIGRNEVNWYQQLPGTAPKLLIYLNNQRPSGVPDRFSGSKSGTSASLAISGLQSEDEADYYCATWDDSLNGWLFGGGTKLTVL
notes: also called L1-P32E; clone 10 P32E
FabZAP internalization, EC50, 4T1 [1]: 0.124 nM
FabZAP internalization, max toxicity, 4T1 [1]: 92%
FabZAP internalization, EC50, MDA-MB-231 [2]: 0.0157 nM
FabZAP internalization, max toxicity, MDA-MB-231 [2]: 95%
